Laboratory results: PMC8284461, “Piperidine-4-Carboxamides Target DNA Gyrase in Mycobacterium abscessus” (Antimicrobial Agents and Chemotherapy, 2021)

Test system: recA promoter-LuxCDABE in wild-type M. abscessus subsp. abscessus ATCC 19977
Assay: recA DNA damage reporter assay
Details: wild-type background, 4 h, luminescence

**Q.** Which “recA promoter-dependent reporter expression” value does the source give for `CC[C@H]1OC(=O)[C@H](C)[C@@H](O[C@H]2C[C@@](C)(OC)[C@@H](O)[C@H](C)O2)[C@H](C)[C@@H](O[C@@H]2O[C@H](C)C[C@H](N(C)C)[C@H]2O)[C@](C)(OC)C[C@@H](C)C(=O)[C@H](C)[C@@H](O)[C@]1(C)O` [CLR, clarithromycin] here?
**A.** The value was “did not cause any increase”.

**Q.** For `COc1c(N2C[C@@H]3CCCN[C@@H]3C2)c(F)cc2c(=O)c(C(=O)O)cn(C3CC3)c12` [MXF, moxifloxacin], which “recA promoter-dependent reporter expression” value is on record?
**A.** The value was “strongly induced”.

**Q.** Which “recA promoter-dependent reporter expression” value does the source give for `CCNC(=O)Nc1nc2cc(-c3cnc(C(C)(C)O)nc3)c(F)c([C@H]3CCCO3)c2[nH]1` [SPR719] here?
**A.** Its value is “only a weak increase”.
